# The list shows a part of the results.
# Experiments:
# Assay in all cases: glycan array binding signal (z-score within array); higher = stronger binding
# Details in all cases: glycan notation: IUPAC condensed, linker removed
# [1] = target: Neu5Ac(a2-3)Gal(b1-3)GalNAc(b1-3)Gal(a1-4)Gal(b1-4)Glc
# Method in brief: (§1)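 The Consortium for Functional Glycomics database supplied 3228 glycan arrays, of which those lacking an available protein sequence were dropped. The binding signal, a within-array Z-score, was averaged across arrays of the same protein sequence and across linkers. Negative scores can be read as non-binding.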
# [2] = target: Neu5Ac(a2-3)Gal(b1-3)GalNAc(b1-4)Gal(b1-4)Glc
# Method in brief: as §1
# [3] = target: Neu5Ac(a2-3)Gal(b1-3)GalNAc(b1-4)[Neu5Ac(a2-3)]Gal(b1-4)Glc
# Method in brief: as §1
# [4] = target: Neu5Ac(a2-3)Gal(b1-3)GalNAc(b1-4)[Neu5Ac(a2-8)Neu5Ac(a2-3)]Gal(b1-4)Glc
# Method in brief: as §1
# [5] = target: Neu5Ac(a2-3)Gal(b1-3)GalNAc6S
# Method in brief: as §1
# [6] = target: Neu5Ac(a2-3)Gal(b1-3)GlcNAc
# Method in brief: as §1
# [7] = target: Neu5Ac(a2-3)Gal(b1-3)GlcNAc(b1-2)Man
# Method in brief: as §1
# [8] = target: Neu5Ac(a2-3)Gal(b1-3)GlcNAc(b1-2)Man(a1-3)[GlcNAc(b1-4)][Neu5Ac(a2-3)Gal(b1-3)GlcNAc(b1-2)Man(a1-6)]Man(b1-4)GlcNAc(b1-4)GlcNAc
# Method in brief: as §1
# [9] = target: Neu5Ac(a2-3)Gal(b1-3)GlcNAc(b1-2)Man(a1-3)[Neu5Ac(a2-3)Gal(b1-3)GlcNAc(b1-2)Man(a1-6)]Man(b1-4)GlcNAc(b1-4)GlcNAc
# Method in brief: as §1
# [10] = target: Neu5Ac(a2-3)Gal(b1-3)GlcNAc(b1-2)[Neu5Ac(a2-3)Gal(b1-3)GlcNAc(b1-4)]Man(a1-6)[Neu5Ac(a2-3)Gal(b1-3)GlcNAc(b1-2)Man(a1-3)]Man(b1-4)GlcNAc(b1-4)GlcNAc
# Method in brief: as §1
# [11] = target: Neu5Ac(a2-3)Gal(b1-3)GlcNAc(b1-3)Gal(b1-3)GlcNAc
# Method in brief: as §1
# [12] = target: Neu5Ac(a2-3)Gal(b1-3)GlcNAc(b1-3)Gal(b1-4)GlcNAc
# Method in brief: as §1
# [13] = target: Neu5Ac(a2-3)Gal(b1-3)GlcNAc(b1-3)GalNAc
# Method in brief: as §1
# [14] = target: Neu5Ac(a2-3)Gal(b1-3)GlcNAc(b1-6)GalNAc
# Method in brief: as §1
# [15] = target: Neu5Ac(a2-3)Gal(b1-3)GlcNAc6S
# Method in brief: as §1
# [16] = target: Neu5Ac(a2-3)Gal(b1-3)[Fuc(a1-4)]GlcNAc
# Method in brief: as §1
# [17] = target: Neu5Ac(a2-3)Gal(b1-3)[Fuc(a1-4)]GlcNAc(b1-3)Gal(b1-3)[Fuc(a1-4)]GlcNAc
# Method in brief: as §1
# [18] = target: Neu5Ac(a2-3)Gal(b1-3)[Fuc(a1-4)]GlcNAc(b1-3)Gal(b1-4)[Fuc(a1-3)]GlcNAc
# Method in brief: as §1
# [19] = target: Neu5Ac(a2-3)Gal(b1-3)[GlcNAc(b1-6)]GalNAc
# Method in brief: as §1
# [20] = target: Neu5Ac(a2-3)Gal(b1-3)[Neu5Ac(a2-3)Gal(b1-4)]GlcNAc
# Method in brief: as §1
# [21] = target: Neu5Ac(a2-3)Gal(b1-3)[Neu5Ac(a2-6)]GalNAc
# Method in brief: as §1
# [22] = target: Neu5Ac(a2-3)Gal(b1-3)[Neu5Ac(a2-6)]GlcNAc(b1-3)[Fuc(a1-3)[Gal(b1-4)]GlcNAc(b1-6)]Gal(b1-4)Glc
# Method in brief: as §1
# [23] = target: Neu5Ac(a2-3)Gal(b1-3)]Neu5Ac(a2-3)Gal(b1-4)]GlcNAc
# Method in brief: as §1
# Neu5Ac(a2-3)Gal(b1-4)Glc = target: Neu5Ac(a2-3)Gal(b1-4)Glc
# Method in brief: as §1
# [24] = target: Neu5Ac(a2-3)Gal(b1-4)GlcNAc
# Method in brief: as §1
# [25] = target: Neu5Ac(a2-3)Gal(b1-4)GlcNAc(b1-2)Man
# Method in brief: as §1
# [26] = target: Neu5Ac(a2-3)Gal(b1-4)GlcNAc(b1-2)Man(a1-3)[GlcNAc(b1-2)Man(b1-4)GlcNAc(b1-2)Man(a1-6)]Man(b1-4)GlcNAc(b1-4)GlcNAc
# Method in brief: as §1
# [27] = target: Neu5Ac(a2-3)Gal(b1-4)GlcNAc(b1-2)Man(a1-3)[GlcNAc(b1-4)][Neu5Ac(a2-3)Gal(b1-4)GlcNAc(b1-2)Man(a1-6)]Man(b1-4)GlcNAc(b1-4)GlcNAc
# Method in brief: as §1
# [28] = target: Neu5Ac(a2-3)Gal(b1-4)GlcNAc(b1-2)Man(a1-3)[Neu5Ac(a2-3)Gal(b1-4)GlcNAc(b1-2)Man(a1-6)]Man(b1-4)GlcNAc(b1-4)GlcNAc
# Method in brief: as §1
# [29] = target: Neu5Ac(a2-3)Gal(b1-4)GlcNAc(b1-2)Man(a1-3)[Neu5Ac(a2-3)Gal(b1-4)GlcNAc(b1-2)Man(a1-6)]Man(b1-4)GlcNAc(b1-4)[Fuc(a1-6)]GlcNAc
# Method in brief: as §1
binder,measurement,setting,value
"Epa1-NP (Candida glabrata), Q6VBJ0 (protein) MILNPALFLNKCVCIYTTLILLLLTNGGYATSSNDISLASKDPTTFPLGCSPDITTPKKGLSMELYSYDFRKKGSYPCWDAAYLDPNYPRTGYKSHRLLAKVDGVTGNINFYYHATKGCTPQLGHLPASYNYPKPLTMTNFTMLLYGYFRPKVTGFHTFTISADDLLFVNFGAGNAFDCCRRDSSADHFGNYQAYAIWGSKTAKDELTVHLDAGVYYPIRLFYNNREYDGALSFTFKTESNENTVSDFSEYFFSLDDTEEGCPGLISYDSSCASVKTSKIIGIDYHTETPNENLVPITKTIYHLGIPCTGTTTTPLCGSGFYDPLANKCVTINTSSTSSVTKTTSHTTSKEVSFHSSISSQKTLIPKSIPSPYGPIKSQSIPTEMETSSEISSSEYAFSDVISTPSHSPYTKKHSSLNSSSYTSTVIHSLTSYSISQGIFSTSLSEQNITSKSSTDKFSTATSMSNNITQSSIIISQFSTNNENYTTTSMHTSSDKISTETLNNSISTTTSILFSNSSTILKNNTTIISSDKDTHYHPVNPTIVCSTNKTEIICASITQPSISNSNNHWSSSVLKFNSTTVRSTLPSSAGSNETSINVPFSSSTESNTSTSSTSTSNSKMVRSTLPSSAGSNETSISVPFSSSTESNTSTSSTSTSNSKMVRSTLPSSAGSNETSINVPFSSSTESNTSTSSTSTSNSKTVRSTPFSSAGIIMTSLSQRNNKSASSYASSNSKCYNTADSCRKVHSTPSYLLTSSYTSEGVDYDCSLVSTKLKINDTNCVNNKHTTKSCLKTSVTTTIPTLEIKTARKSSSNTIGLHSYPTSSPNKSISSAPIIGYISSFKTIKTASPSYQTSDLTTITTITSLNNPGSTAVENTHESNDKSRKTSSNDISSKHSVIKETKDAVESSNKSHQTNTLKCSSIIIASSSHNSYESLGGTTLTLTLSKVYSPQNNDTLPFLEISEVNPSRTVLPESSKMMQYLTSTEERNKTARNTIATNIVSISTFHFEGEGNAIRMGYTQLLLMLIGIIVMNIGT",glycan array binding signal (z-score),[1],-0.274
same,glycan array binding signal (z-score),[2],-0.285
same,glycan array binding signal (z-score),[3],-0.327
same,glycan array binding signal (z-score),[4],-0.253
same,glycan array binding signal (z-score),[5],-0.313
same,glycan array binding signal (z-score),[6],-0.313
same,glycan array binding signal (z-score),[7],-0.288
same,glycan array binding signal (z-score),[8],-0.284
same,glycan array binding signal (z-score),[9],-0.273
same,glycan array binding signal (z-score),[10],-0.278
same,glycan array binding signal (z-score),[11],-0.326
same,glycan array binding signal (z-score),[12],-0.313
same,glycan array binding signal (z-score),[13],-0.292
same,glycan array binding signal (z-score),[14],-0.284
same,glycan array binding signal (z-score),[15],-0.337
same,glycan array binding signal (z-score),[16],-0.315
same,glycan array binding signal (z-score),[17],-0.259
same,glycan array binding signal (z-score),[18],-0.397
same,glycan array binding signal (z-score),[19],-0.29
same,glycan array binding signal (z-score),[20],-0.345
same,glycan array binding signal (z-score),[21],-0.231
same,glycan array binding signal (z-score),[22],-0.277
same,glycan array binding signal (z-score),[23],-0.287
same,glycan array binding signal (z-score),Neu5Ac(a2-3)Gal(b1-4)Glc,-0.325
same,glycan array binding signal (z-score),[24],-0.307
same,glycan array binding signal (z-score),[25],-0.274
same,glycan array binding signal (z-score),[26],-0.3
same,glycan array binding signal (z-score),[27],-0.283
same,glycan array binding signal (z-score),[28],-0.287
same,glycan array binding signal (z-score),[29],-0.285

# Source: the supplement of paper PMC8728848
